These results are taken from PMC9636508.

Sequences of proteins named here, by UniProt entry; tags and fusion partners are left off. A change or cut given only in a name is not applied to a line headed by its entry. A line that says so, or that is headed by a name, gives the form on record, which may keep a tag or linker. Residues count along the entry.
UniProt Q9UNF0: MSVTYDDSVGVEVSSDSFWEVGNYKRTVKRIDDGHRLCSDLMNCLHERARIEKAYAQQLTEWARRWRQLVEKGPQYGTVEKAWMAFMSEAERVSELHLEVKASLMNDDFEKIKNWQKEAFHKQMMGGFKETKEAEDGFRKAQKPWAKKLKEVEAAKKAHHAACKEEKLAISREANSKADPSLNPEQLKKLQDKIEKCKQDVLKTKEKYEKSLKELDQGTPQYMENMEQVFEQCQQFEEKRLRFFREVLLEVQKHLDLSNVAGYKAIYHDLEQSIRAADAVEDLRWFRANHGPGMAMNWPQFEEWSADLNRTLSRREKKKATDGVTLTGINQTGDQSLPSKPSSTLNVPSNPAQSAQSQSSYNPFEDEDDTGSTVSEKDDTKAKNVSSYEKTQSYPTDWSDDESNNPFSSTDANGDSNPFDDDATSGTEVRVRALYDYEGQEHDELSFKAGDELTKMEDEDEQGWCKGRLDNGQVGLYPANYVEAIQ
PACSIN2 D4 mutant (lacks the SH3 domain, amino acids 430-486): residues 1-429 of Q9UNF0
GST-SH3 (GST-fused SH3 domain of PACSIN2): residues 430-486 of Q9UNF0

Results are given in words; binding and its absence hold for the method and conditions named. Binding seen in cells or lysates may run through a third protein. Some binding calls cover weakened binding; strength is not graded here.

Experiment [1] concerns the target GST-SH3 (GST-fused SH3 domain of PACSIN2) (human) (UniProt Q9UNF0). Kind of experiment: pull-down; GST pull-down with the GST-fused SH3 domain of PACSIN2; methods not shown.
Experiment [2] addresses PACSIN2 D4 mutant (lacks the SH3 domain, amino acids 430-486) (human) (UniProt Q9UNF0). Kind of experiment: co-IP; K562 cells transfected with expression plasmids, lysed after 24 h in NETN buffer (150 mM NaCl, 0.5 mM EDTA, 50 mM Tris pH 7.5, 0.5% NP-40); streptavidin-coated beads or protein A-agarose with primary antibody; western blot.
The target of experiment [3] is PACSIN2 wild type, overexpressed (human) (UniProt Q9UNF0). The description is as above.
For experiment [4] the target is unchanged. Kind of experiment: co-IP; immunoprecipitation of PACSIN2 and SH3BP1 with expression of full-length Cobll1 or the N-terminus of Cobll1.
For experiment [5], the target named is PACSIN2 (endogenous) (human (endogenous in K562)) (UniProt Q9UNF0). Put plainly: co-IP; endogenous proteins; K562 cells.

B1: SH3BP1 wild type, overexpressed (protein, UniProt Q9Y3L3 1-701)
chain: MMKRQLHRMRQLAQTGSLGRTPETAEFLGEDLLQVEQRLEPAKRAAHNIHKRLQACLQGQSGADMDKRVKKLPLMALSTTMAESFKELDPDSSMGKALEMSCAIQNQLARILAEFEMTLERDVLQPLSRLSEEELPAILKHKKSLQKLVSDWNTLKSRLSQATKNSGSSQGLGGSPGSHSHTTMANKVETLKEEEEELKRKVEQCRDEYLADLYHFVTKEDSYANYFIRLLEIQADYHRRSLSSLDTALAELRENHGQADHSPSMTATHFPRVYGVSLATHLQELGREIALPIEACVMMLLSEGMKEEGLFRLAAGASVLKRLKQTMASDPHSLEEFCSDPHAVAGALKSYLRELPEPLMTFDLYDDWMRAASLKEPGARLQALQEVCSRLPPENLSNLRYLMKFLARLAEEQEVNKMTPSNIAIVLGPNLLWPPEKEGDQAQLDAASVSSIQVVGVVEALIQSADTLFPGDINFNVSGLFSAVTLQDTVSDRLASEELPSTAVPTPATTPAPAPAPAPAPAPALASAATKERTESEVPPRPASPKVTRSPPETAAPVEDMARRTKRPAPARPTMPPPQVSGSRSSPPAPPLPPGSGSPGTPQALPRRLVGSSLRAPTVPPPLPPTPPQPARRQSRRSPASPSPASPGPASPSPVSLSNPAQVDLGAATAEGGAPEAISGVPTPPAIPPQPRPRSLASETN
As to B1, the binding result was “binds” in experiment [1], “no binding” in experiment [2], “binds” in experiment [3] and “binds” in experiment [4].

B2: SH3BP1 (endogenous) (protein, UniProt Q9Y3L3 1-701)
chain: MMKRQLHRMRQLAQTGSLGRTPETAEFLGEDLLQVEQRLEPAKRAAHNIHKRLQACLQGQSGADMDKRVKKLPLMALSTTMAESFKELDPDSSMGKALEMSCAIQNQLARILAEFEMTLERDVLQPLSRLSEEELPAILKHKKSLQKLVSDWNTLKSRLSQATKNSGSSQGLGGSPGSHSHTTMANKVETLKEEEEELKRKVEQCRDEYLADLYHFVTKEDSYANYFIRLLEIQADYHRRSLSSLDTALAELRENHGQADHSPSMTATHFPRVYGVSLATHLQELGREIALPIEACVMMLLSEGMKEEGLFRLAAGASVLKRLKQTMASDPHSLEEFCSDPHAVAGALKSYLRELPEPLMTFDLYDDWMRAASLKEPGARLQALQEVCSRLPPENLSNLRYLMKFLARLAEEQEVNKMTPSNIAIVLGPNLLWPPEKEGDQAQLDAASVSSIQVVGVVEALIQSADTLFPGDINFNVSGLFSAVTLQDTVSDRLASEELPSTAVPTPATTPAPAPAPAPAPAPALASAATKERTESEVPPRPASPKVTRSPPETAAPVEDMARRTKRPAPARPTMPPPQVSGSRSSPPAPPLPPGSGSPGTPQALPRRLVGSSLRAPTVPPPLPPTPPQPARRQSRRSPASPSPASPGPASPSPVSLSNPAQVDLGAATAEGGAPEAISGVPTPPAIPPQPRPRSLASETN
In the case of B2, in experiment [5], the binding result is recorded as “binds”.

B3: Cobll1 D1 (deletion of amino acids 14-368) (protein, UniProt Q53SF7)
chain: MDGRTPRPQDAPASKIPPHQSDENSRVTALQPVDGVPPDSASEANSPEELSSPAGISSDYSLEEIDEKEELSEVPKVEAENISPKSQDIPFVSTDIINTLKNDPDSALGNGSGEFSQNSMEEKQETKSTDGQEPHSVVYDTSNGKKVVDSIRNLKSLGPNQENVVQNEIIVYPENTEDNMKNGVKKTEINVEGVAKNNNIDMEVERPSNSEAHETDTAISYKENHLAASSVPDQKLNQPSAEKTKDAAIQTTPSCNSFDGKHQDHNLSDSKVEECVQTSNNNISTQHSCLSSQDSVNTSREFRSQGTLIIHSEDPLTVKDPICAHGNDDLLPPVDRIDKNSTASYLKNYPLYRQDYNPKPKPSNEITREYIPKIGMTTYKIVPPKSLEISKDWQSETIEYKDDQDMHALGKKHTHENVKETAIQTEDSAISESPEEPLPNLKPKPNLRTEHQVPSSVSSPDDAMVSPLKPAPKMTRDTGTAPFAPNLEEINNILESKFKSRASNAQAKPSSFFLQMQKRVSGHYVTSAAAKSVHAAPNPAPKELTNKEAERDMLPSPEQTLSPLSKMPHSVPQPLVEKTDDDVIGQAPAEASPPPIAPKPVTIPASQVSTQNLKTLKTFGAPRPYSSSGPSPFALAVVKRSQSFSKERTESPSASALVQPPANTEEGKTHSVNKFVDIPQLGVSDKENNSAHNEQNSQIPTPTDGPSFTVMRQSSLTFQSSDPEQMRQSLLTAIRSGEAAAKLKRVTIPSNTISVNGRSRLSHSMSPDAQDGH
On to B3, for which the binding entry in experiment [3] was “no binding”.
